# Data from article PMC4336329 (PLoS ONE, 2015).
# The whole screen tested about 310,000 compounds, of which about 14,000 (4.5%) showed an effect of 50% or more. Effects have a minus sign here. The list shows a part of the results.
# Target: human ether-à-go-go-related gene (hERG) potassium channel (human, UniProt Q12809)
# Experiment: primary screen, population patch clamp on CHO cells stably expressing hERG
# 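Also: peak tail current of the secondary pulse compared with the same well before compound.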
# Chain of human ether-à-go-go-related gene (hERG) potassium channel (Q12809 whole entry, looked up): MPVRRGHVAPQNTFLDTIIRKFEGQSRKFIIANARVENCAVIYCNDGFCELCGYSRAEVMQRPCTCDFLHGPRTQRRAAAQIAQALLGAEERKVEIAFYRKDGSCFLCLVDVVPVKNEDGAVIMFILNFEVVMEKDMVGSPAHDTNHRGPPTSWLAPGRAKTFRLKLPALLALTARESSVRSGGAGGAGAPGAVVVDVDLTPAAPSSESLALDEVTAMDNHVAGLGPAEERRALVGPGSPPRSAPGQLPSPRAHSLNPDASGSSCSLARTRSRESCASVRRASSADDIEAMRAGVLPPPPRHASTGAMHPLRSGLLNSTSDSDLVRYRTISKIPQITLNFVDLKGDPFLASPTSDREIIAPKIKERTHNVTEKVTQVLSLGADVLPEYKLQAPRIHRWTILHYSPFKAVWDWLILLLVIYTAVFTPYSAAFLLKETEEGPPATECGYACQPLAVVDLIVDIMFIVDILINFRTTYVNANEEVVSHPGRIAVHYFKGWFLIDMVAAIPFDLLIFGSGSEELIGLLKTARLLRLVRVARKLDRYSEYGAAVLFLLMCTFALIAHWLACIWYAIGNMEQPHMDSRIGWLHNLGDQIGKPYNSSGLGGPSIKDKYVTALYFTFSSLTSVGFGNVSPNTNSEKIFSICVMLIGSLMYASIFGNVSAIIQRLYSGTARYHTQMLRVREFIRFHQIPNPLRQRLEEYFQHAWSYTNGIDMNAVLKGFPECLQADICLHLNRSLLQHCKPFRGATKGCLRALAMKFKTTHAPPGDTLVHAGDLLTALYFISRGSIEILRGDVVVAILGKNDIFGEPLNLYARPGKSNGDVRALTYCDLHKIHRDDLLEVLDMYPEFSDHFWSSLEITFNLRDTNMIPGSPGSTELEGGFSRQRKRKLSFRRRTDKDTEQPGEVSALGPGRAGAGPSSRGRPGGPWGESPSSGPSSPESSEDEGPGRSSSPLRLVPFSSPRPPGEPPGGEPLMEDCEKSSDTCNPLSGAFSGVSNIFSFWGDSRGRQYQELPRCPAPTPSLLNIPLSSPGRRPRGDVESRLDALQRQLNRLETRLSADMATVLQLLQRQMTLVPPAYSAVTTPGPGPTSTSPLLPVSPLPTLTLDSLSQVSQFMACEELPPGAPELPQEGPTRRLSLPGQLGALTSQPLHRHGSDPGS
row,SMILES,"hERG current change (%, negative = inhibition) at 10uM [%]"
1,COc1ccc(NC(=O)NNC(=O)c2cc(C3CC3)nc3ccccc23)c(OC)c1,8.88
2,COc1ccc(Cl)cc1NS(=O)(=O)c1ccc(OC)c(OC)c1,-11.3
3,C=CCN(C(=O)c1csnn1)C(C(=O)NC1CCCC1)c1c(F)cccc1Cl (centres unmarked),1.48
4,COC(CNS(=O)(=O)c1cccc2nonc12)OC,14.5
5,Cc1cccn2c(=O)c(C=NCc3ccccc3)c(NCCO)nc12,0.417
6,CC(CN1CCOCC1)OC(=O)/C=C/c1ccccc1.Cl (centres unmarked),10.1
7,COC(=O)c1cccc(COC(=O)c2cccnc2SC)c1,-1.7
8,CN(C(=O)c1ccc(NC(=O)Cc2ccc(NC(=O)C3CCCN(C(=O)C4CC4)C3)cc2)cc1)C1CC1 (centres unmarked),-4.41
9,CSc1oc(-c2cccs2)nc1S(=O)(=O)c1ccccc1,-2.86
10,Cn1c(=O)c(C(=S)NC(=O)C2CC2)c(N)n(Cc2ccccc2)c1=O,18.2
11,COc1ccc(Cc2cc(-c3ccc(F)cc3)n[nH]c2=O)cc1,11.3
12,COCCn1c(SCC(N)=O)nnc1-c1c[nH]c2ccccc12,12
13,COc1ccccc1CNC(=O)CSc1ccccc1,10.9
14,COc1cc(NC(=O)c2cc3nc(-c4ccccc4)cc(-c4ccccc4)n3n2)cc(OC)c1OC,6.37
15,CCOC(=O)C[C@H]1c2cc(F)ccc2S(=O)(=O)N1C(C)(C)C,0.338
16,CCn1ncc(Cl)c1C(=O)Nc1cc(Cl)ccc1Cl,3.04
17,O=C(NCc1ccccc1)C(c1ccco1)N(C(=O)c1csnn1)c1ccccc1 (centres unmarked),21.6
18,Cc1ccccc1C(=O)N1CCN(CCNC(=O)C(=O)Nc2ccc(Br)cc2)CC1,-68.8
19,CN1C=CC=C/C1=C1/N=C(c2ccccc2)OC1=O,31.5

row,SMILES,"hERG current change (%, negative = inhibition) at 10uM [%]"
1,CN(C)CCN(C(=O)c1ccc(Br)s1)c1nc2cc3c(cc2s1)OCCO3.Cl,-4.91
2,COC(=O)C1=NN(c2ccc(Cl)cc2)C2C(=O)N(c3ccccc3OC)C(=O)C12 (centres unmarked),12
3,CC(C)(C)C(=O)NC(=S)Nc1ccccc1C(=O)Nc1ccccc1,6.6
4,Nc1ccc(Oc2ccccc2-c2ccccc2)cc1,-20.4
5,COc1ccccc1NS(=O)(=O)c1cc(NC(=O)c2cccs2)ccc1N1CCCC1,6.58
6,CCOC(=O)c1cn[nH]c1NC(=S)Nc1ccc(Cl)cc1,1.86
7,Clc1ccc(CSc2nnc(-c3ccccn3)n2Cc2ccco2)c(Cl)c1,-5.15
8,CC(C)C(c1nnnn1C(C)(C)C)N1CCC(Cc2ccccc2)CC1 (centres unmarked),-14.3
9,Cc1ccccc1-n1c(SC2CCOC2=O)nnc1-c1ccncc1 (centres unmarked),-3.17
10,O=C(COc1ccc([N+](=O)[O-])cc1Cl)N1CCOCC1,12
11,Cc1cc2c(cc1C)[n+](C)cn2CC(O)COCc1ccccc1.[I-] (centres unmarked),6.97
12,N#CC1=C2SCCN2C(=O)C(C#N)C12CCCCC2 (centres unmarked),-25.9
13,COc1ccccc1CNC(=O)c1cc2ccccc2o1,-26.4
14,CCOC(=O)c1cccc(NC(=O)CSc2nnc(-c3cccnc3)n2C)c1,-30.4
15,O=C(C1=C[C@@H](c2coc3ccccc3c2=O)C[C@@H](OCCCCO)O1)N1CCN(Cc2ccc3c(c2)OCO3)CC1,-49.7
16,O=C(O)CCC(=O)c1ccc(-c2ccccc2)cc1,-6.1
17,CC(=O)N1c2ccc(S(=O)(=O)N3CCCC3)cc2CC1C(=O)NCc1cccc(F)c1 (centres unmarked),-2.23
18,CCCCN(Cc1ccccc1)S(=O)(=O)c1cc(Br)cc2c1N(C(C)=O)C(C)C2 (centres unmarked),-10.6
19,O=C(Cc1cccs1)Nc1cc(S(=O)(=O)N2CCCCC2)ccc1Cl,-0.378

row,SMILES,"hERG current change (%, negative = inhibition) at 10uM [%]"
1,COc1ccc(OCC(=O)Nc2ccc(N3CCOCC3)c(Cl)c2)cc1,-19.6
2,CC(=O)c1ccc(NC(=O)NCc2ccc(F)cc2)cc1,7.1
3,COc1ccc(Nc2nc(-c3ccccc3)nc3ccccc23)c(OC)c1,-1.67
4,CCCS(=O)(=O)N1CCC(C(=O)NCCN2CCC(Cc3ccccc3)CC2)CC1,-57.6
5,CCn1c(=O)c(C(=O)NCCc2ccc(Cl)cc2)c(O)c2ccccc21,17.2
6,O=C(Cc1ccsc1)N1CCN(S(=O)(=O)c2cc(C(F)(F)F)cc(C(F)(F)F)c2)CC1,1.69
7,O=C(Cc1cn2ccsc2n1)Nc1nc2c(s1)CCCC2,-0.221
8,CCCCCNCc1cccn1C.Cl,3.62
9,C[C@H](NC(=O)c1nc[nH]c1C(=O)NC(c1ccccc1)c1ccccc1)C(=O)OC(C)(C)C,8.78
10,COc1ccc(-c2csc(NC(=O)C3CCCO3)n2)cc1 (centres unmarked),-1.6
11,O=C(Nc1ccccc1)c1ccccc1CC[N+](=O)[O-],3.97
12,Cc1ccc(Cl)cc1N(CC(=O)NCc1ccccc1)S(C)(=O)=O,-2.19
13,Cc1cc(=O)oc2cc(OCC(=O)NC3CC(C)(C)NC(C)(C)C3)ccc12,-34.2
14,CC1(C)Cc2nc3sc4c(SCC(=O)NC(c5ccccc5)c5ccccc5)ncnc4c3cc2CO1,2.55
15,CCCCCCCCN1C(=O)C(O)=C(C(C)=O)C1c1ccccn1 (centres unmarked),7.63
16,O=C(COC(=O)c1ccccn1)Nc1ncc(C(F)(F)F)cc1Cl,-11.7
17,CCOC(=O)Nc1ccc2c(c1)N(C(=O)CCN(CC)CC)c1ccccc1S2=O.Cl (centres unmarked),-18
18,CCCOc1ccc2c3c(c(=O)oc2c1OCCC)CCCC3,-3.67
